Experimental data reported in the supplement of paper PMC4967469.
The IC50 comes from the fitted curve, where viability falls to half of the control; a limit (>, <) means that the fit lies beyond the doses tested. AUC, from the same fit, is the share of area under the viability curve across the 256-fold dose range: 1 means no effect, lower means more sensitive. For part of these data: A top dose marked as inferred was calculated from the reported fits. For part of these data: Drugs with an entry number were screened twice under separate entries, and the two screens often disagree.

Columns and labels:
Experiment in all cases: Viability of human cancer cell lines after 72 h of drug (GDSC screen)
Parthenolide = compound: C=C1C(=O)O[C@H]2[C@H]1CC/C(C)=C/CC[C@@]1(C)O[C@@H]21 [Parthenolide]; conditions: top dose 5 µM
Protocol: (§1)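 Human cancer cell lines in 384-well plates, medium with 10% serum, drug for 72 h over a 256-fold dose range (nine 2-fold or five 4-fold steps up to the top dose). Adherent lines were fixed and stained with the nucleic acid dye Syto60, suspension lines read with resazurin; signal relative to control wells, capped at 0 and 100%. One two-parameter sigmoid per drug and line, fitted in a mixed model over all curves with the slope shared within a line.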

PAC-1 = compound: C=CCc1cccc(/C=N/NC(=O)CN2CCN(Cc3ccccc3)CC2)c1O [PAC-1]; conditions: top dose 2.56 µM
Protocol: as §1

KIN001-135 = compound: COc1cc2ncn(-c3cc(OCc4ccccc4S(C)(=O)=O)c(C#N)s3)c2cc1OC [KIN001-135]; conditions: top dose 5 µM; top dose inferred
Protocol: as §1

BMS-708163 = compound: NC(=O)[C@@H](CCC(F)(F)F)N(Cc1ccc(-c2ncon2)cc1F)S(=O)(=O)c1ccc(Cl)cc1 [BMS-708163]; conditions: top dose 5 µM; screen: GDSC drug entry 1072; top dose inferred
Protocol: as §1

Cell Line | AUC (Parthenolide) | IC50 (Parthenolide) [µM] | AUC (PAC-1) | IC50 (PAC-1) [µM] | AUC (KIN001-135) | IC50 (KIN001-135) [µM] | AUC (BMS-708163) | IC50 (BMS-708163) [µM]
H9 (lymphoid neoplasm, suspension) | 0.815 | 2.15 | 0.868 | 1.67 | 0.992 | > 5 | 0.992 | > 5
SW954 (urogenital system, adherent) | 0.958 | > 5 | 0.974 | > 2.56 | 0.982 | > 5 | 0.897 | > 5
NCI-H2081 (small cell lung carcinoma, suspension) | 0.986 | > 5 | 0.987 | > 2.56 | 0.985 | > 5 | 0.989 | > 5
HAL-01 (lymphoblastic leukaemia, suspension) | 0.863 | 3.52 | 0.721 | 0.62 | 0.989 | > 5 | 0.985 | > 5
NCI-H211 (small cell lung carcinoma, adherent) | 0.968 | > 5 | 0.851 | 1.88 | 0.962 | > 5 | 0.979 | > 5
IM-9 (myeloma, suspension) | 0.96 | > 5 | 0.939 | > 2.56 | 0.988 | > 5 | 0.991 | > 5
COR-L279 (small cell lung carcinoma, suspension) | 0.974 | > 5 | 0.977 | > 2.56 | 0.99 | > 5 | 0.991 | > 5
LXF-289 (lung adenocarcinoma, adherent) | 0.963 | > 5 | 0.987 | > 2.56 | 0.986 | > 5 | 0.977 | > 5
EW-11 (Ewing sarcoma, adherent) | 0.981 | > 5 | 0.884 | > 2.56 | 0.974 | > 5 | 0.789 | 2.93
H-EMC-SS (chondrosarcoma, adherent) | 0.981 | > 5 | 0.981 | > 2.56 | 0.974 | > 5 | 0.905 | > 5
U-698-M (B-cell leukaemia, suspension) | 0.96 | > 5 | 0.899 | > 2.56 | 0.987 | > 5 | 0.985 | > 5
CA46 (Burkitt lymphoma, suspension) | 0.976 | > 5 | 0.879 | > 2.56 | 0.981 | > 5 | 0.985 | > 5
KY821 (leukaemia, suspension) | 0.963 | > 5 | 0.924 | > 2.56 | 0.992 | > 5 | 0.978 | > 5
COR-L88 (small cell lung carcinoma, adherent) | 0.986 | > 5 | 0.696 | 0.639 | 0.978 | > 5 | 0.984 | > 5
NB12 (neuroblastoma, adherent) | 0.966 | > 5 | 0.975 | > 2.56 | 0.974 | > 5 | 0.979 | > 5
TE-12 (oesophagus, suspension) | 0.933 | > 5 | 0.982 | > 2.56 | 0.965 | > 5 | 0.966 | > 5
KS-1 (glioma, adherent) | 0.873 | > 5 | 0.972 | > 2.56 | 0.864 | > 5 | 0.979 | > 5
SK-PN-DW (Ewing sarcoma, adherent) | 0.903 | > 5 | 0.974 | > 2.56 | 0.975 | > 5 | 0.985 | > 5
SU-DHL-16 (B-cell lymphoma, suspension) | 0.903 | 3.36 | 0.885 | 1.51 | 0.996 | > 5 | 0.996 | > 5
BB65-RCC (kidney, adherent) | 0.825 | 3.63 | 0.947 | > 2.56 | 0.983 | > 5 | 0.978 | > 5
EoL-1-cell (haematopoietic neoplasm, suspension) | 0.985 | > 5 | 0.869 | 1.9 | 0.944 | > 5 | 0.985 | > 5
SU-DHL-4 (B-cell lymphoma, suspension) | 0.944 | 4.6 | 0.997 | > 2.56 | 0.991 | > 5 | 0.997 | > 5
A3-KAW (B-cell lymphoma, suspension) | 0.81 | 2 | 0.89 | 1.91 | 0.992 | > 5 | 0.993 | > 5
EW-13 (Ewing sarcoma, suspension) | 0.985 | > 5 | 0.904 | > 2.56 | 0.984 | > 5 | 0.982 | > 5
NCI-H82 (small cell lung carcinoma, suspension) | 0.986 | > 5 | 0.989 | > 2.56 | 0.988 | > 5 | 0.986 | > 5
QIMR-WIL (acute myeloid leukaemia, suspension) | 0.884 | > 5 | 0.849 | 1.83 | 0.981 | > 5 | 0.984 | > 5
PSN1 (pancreas, adherent) | 0.95 | > 5 | 0.876 | 1.87 | 0.991 | > 5 | 0.987 | > 5
CTV-1 (acute myeloid leukaemia, suspension) | 0.936 | > 5 | 0.821 | 1.11 | 0.99 | > 5 | 0.99 | > 5
LU-165 (small cell lung carcinoma, suspension) | 0.988 | > 5 | 0.887 | > 2.56 | 0.985 | > 5 | 0.988 | > 5
KM-H2 (Hodgkin lymphoma, suspension) | 0.987 | > 5 | 0.878 | 1.92 | 0.993 | > 5 | 0.987 | > 5
